Data: PubChem BioAssay AID360 (National Center for Advancing Translational Sciences (NCATS), 2006)
Among all 48,000 compounds or so, about 550 (1.1%) were called active. About 4% were inconclusive and are not listed. No stated cut-off is given here; in the data, active means potency below about 15 µM; inconclusive means mostly about 16 µM to 33 µM; inactive means weaker than that. The list shows a part of the results.

Each molecule was assayed against Lysosomal acid glucosylceramidase (Homo sapiens) (UniProt P04062) (assay: Glucocerebrosidase). Conditions: purified enzyme, resorufin glucoside fluorescence (screen aimed at inhibitors), 20 min.
Summary of the method: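 Compounds titrated against 0.2 nM normal enzyme, 30 uM resorufin beta-D-glucopyranoside substrate, citrate/phosphate buffer with taurocholate and tween-20, pH 5.9. Reaction ran 20 min at room temperature; fluorescence (Ex 548/Em 600) gave AC50.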
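Further: the screen sought inhibitors.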
Potency means the concentration at half of the fitted maximal effect.

Chain of UniProt P04062 (P04062 whole entry, looked up): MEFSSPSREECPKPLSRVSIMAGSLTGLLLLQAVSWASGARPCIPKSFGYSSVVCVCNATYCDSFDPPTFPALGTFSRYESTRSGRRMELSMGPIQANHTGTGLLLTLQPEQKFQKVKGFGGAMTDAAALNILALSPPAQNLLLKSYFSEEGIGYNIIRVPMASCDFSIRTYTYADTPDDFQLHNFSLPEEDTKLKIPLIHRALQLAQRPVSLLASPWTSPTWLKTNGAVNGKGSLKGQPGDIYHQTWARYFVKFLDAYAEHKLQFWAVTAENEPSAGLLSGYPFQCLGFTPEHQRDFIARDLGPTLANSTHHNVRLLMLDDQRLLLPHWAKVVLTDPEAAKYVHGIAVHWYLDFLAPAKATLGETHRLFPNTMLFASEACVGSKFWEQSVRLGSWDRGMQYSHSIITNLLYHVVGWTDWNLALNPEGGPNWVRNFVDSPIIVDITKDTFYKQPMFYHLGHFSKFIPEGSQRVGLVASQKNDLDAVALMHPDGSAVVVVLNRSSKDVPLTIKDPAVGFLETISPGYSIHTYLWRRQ

SMILES | Potency
COc1ccc(C(=O)NCC(c2ccc(F)cc2)N2CCOCC2)cc1S(=O)(=O)N1CCCC1 (configuration not stated) | inactive: > 76.9 µM
CCNC(=O)NC1(C(=O)Nc2ccc3c(c2)CCC3)CCCCC1 | inactive: > 76.9 µM
O=C(CSc1nc2ccccc2c(=O)[nH]1)Nc1ccc(S(=O)(=O)N2CCCC2)cc1 | inactive
O=C1NC2C(NC(=O)N2C2CCCCC2)N1C1CCCCC1 (configuration not stated) | inactive: > 76.9 µM
O=C(Nc1nnc(-c2ccccc2Cl)o1)c1ccco1 | inactive: > 76.9 µM
Cc1cnc(C(=O)Nc2ccccc2C(=O)N2CCOCC2)cn1 | inactive: > 76.9 µM
CCCCN(C)C(=O)C1CCN(C/C(C)=C/c2ccccc2)CC1 | inactive: > 76.9 µM
CCOC(=O)N1CCC(N(CCOC)C(=O)Nc2ccc(CC)cc2)CC1 | inactive: > 76.9 µM
N#CC(C(=O)NCCc1ccccc1)c1nc2ccccc2nc1N1CCOCC1 (configuration not stated) | inactive: > 76.9 µM
CCOc1cc(C(=S)N2CCN(C)CC2)ccc1OCC(=O)N1CCOCC1 | inactive: > 76.9 µM
COC(=O)c1cc2oc(C)cc2n1CC(=O)N(C)c1ccccc1 | inactive
Cc1ccc(NC(=O)N2C(=O)C3(OCCO3)c3ccccc32)cc1 | inactive: > 76.9 µM
COc1cccc(-c2nnc(SCCC(=O)O)n2C)c1 | inactive: > 76.9 µM
O=C(c1ccc(F)cc1)N1CCN(c2ncccn2)CC1 | inactive: > 76.9 µM
Cc1cccc(CN2CCN(CC(=O)NCCCN3CCCC3=O)C2=O)c1 | inactive: > 76.9 µM
COc1ccc2nc(NC(=O)CCc3nc(-c4ccccc4F)no3)sc2c1 | inactive: > 76.9 µM
COc1ccc2[nH]c(=O)c(CN(C(C)=O)C3CCCCC3)cc2c1 | inactive: > 76.9 µM
Cc1ccc(CNn2cnnc2SCC(=O)NC(C)(C)C)cc1 | inactive: > 76.9 µM
O=C1NC(c2ccc3c(c2)OCO3)Nc2ccccc21 (configuration not stated) | inactive: > 76.9 µM
O=C(NCc1cccs1)C1CCCN1S(=O)(=O)c1ccccc1F (configuration not stated) | inactive: > 76.9 µM
CC(C)OCCCNc1nc2c(c(=O)n(Cc3ccccc3F)c(=O)n2C)n1C | inactive: > 76.9 µM
CCOC(=O)c1c(C)c(C(=O)NCc2ccccn2)c(C)n1CC | inactive: > 76.9 µM
Cn1c(=O)cc(SCC(=O)N2CCN(C3CCCCC3)CC2)c2ccccc21 | inactive: > 76.9 µM

SMILES | Potency
CN1c2cccc3cccc(c23)N(C)C1(C)C | inactive: > 76.9 µM
O=S(=O)(c1ccc(Oc2ccc3oc4ccccc4c3c2)nc1)N1CCCC1 | inactive: > 76.9 µM
COc1cc(OC)c(C2C(C(=O)Nc3ccc(C)cc3C)=C(C)Nc3ncnn32)cc1OC (configuration not stated) | inactive: > 76.9 µM
O=C(NCc1cccc(Cl)c1)c1ccco1 | inactive: > 76.9 µM
CCOC(=O)C1=C(C)NC(=O)NC1c1cc(C)sc1C (configuration not stated) | inactive: > 76.9 µM
CCCNS(=O)(=O)c1ccc(CCC(=O)NCc2ccco2)cc1 | inactive: > 76.9 µM
C1=C(CCNC2=NCCCCC2)CCCC1 | inactive: > 76.9 µM
Oc1ccccc1Oc1ncc(Br)c(N2CCOCC2)n1 | inactive: > 76.9 µM
COc1cccc(OC)c1OCCCOc1c(OC)cccc1OC | inactive: > 76.9 µM
COc1ccc2[nH]cc(C(=O)CN3CCCCC3C)c2c1 (configuration not stated) | inactive: > 76.9 µM
CCOC(=O)c1c(NC(=O)CSc2nnnn2C)sc(CC)c1C | inactive: > 76.9 µM
COC(=O)CSc1nc2c(c(-c3ccc(C)o3)c1C#N)CCCC2 | active: 15.3 µM
CC1CCCCC1NC(=O)C1CCN(C(=O)NC2CCCCC2)CC1 (configuration not stated) | inactive: > 76.9 µM
CCOc1ccccc1-n1c(COc2ccccc2)nnc1SCC(N)=O | inactive: > 76.9 µM
O=C(Cn1cnc2c(oc3ccccc32)c1=O)c1ccccc1 | inactive: > 76.9 µM
Cc1ccc(Cn2c(CN3CC(C)OC(C)C3)nc3c2c(=O)[nH]c(=O)n3C)cc1 (configuration not stated) | inactive: > 76.9 µM
O=C(c1cc2ccccc2c(=O)o1)N1CCc2ccccc2C1 | inactive: > 76.9 µM
CCOc1cc(-c2c(C#N)c(N)nc3c2CCCC3C)ccc1O (configuration not stated) | inactive: > 76.9 µM
COCCn1c(NCc2ccccc2)nc2c1c(=O)[nH]c(=O)n2C | inactive: > 76.9 µM
O=C(Cc1ccc(S(=O)(=O)N2CCOCC2)s1)NCC1CCCCC1 | inactive: > 76.9 µM
CCOC(=O)/C=c1\s/c(=C\c2ccccc2OC)c(=O)n1CC(=O)N1CCOCC1 | inactive: > 76.9 µM
CC(=O)c1cccc(NC(=O)N[C@@H](CC(C)C)C(=O)O)c1 | inactive: > 76.9 µM
Cc1cccc(-n2nc3c(c2NC(=O)c2ccc(S(=O)(=O)N4CCOCC4)cc2)CSC3)c1C | inactive: > 76.9 µM

SMILES | Potency
CCn1cc(C(=O)NCC2CCCO2)c(=O)c2cc(S(=O)(=O)N3CCCCCC3)ccc21 (configuration not stated) | inactive: > 76.9 µM
Cc1nn(-c2ccccc2)c(Cl)c1C1C(C#N)=C(N)OC2=C1C(=O)CCC2 (configuration not stated) | inactive
CS(=O)(=O)Nc1ccc(N2CCCCC2)c(Cl)c1 | inactive: > 76.9 µM
O=C(NCc1ccccc1)N1CCN(c2ccccc2F)CC1 | inactive: > 76.9 µM
Cc1cccc2cc(C(c3nnnn3CC3CCCO3)N3CCCc4ccccc43)c(=O)[nH]c12 (configuration not stated) | inactive: > 76.9 µM
Oc1ccc(-c2nnc(SCC3CCCCC3)o2)cc1 | inactive: > 76.9 µM
O=C(Nc1cccnc1)c1c(F)cccc1F | inactive: > 76.9 µM
COc1ccc(-n2nnnc2SC(C)C(N)=O)cc1 (configuration not stated) | inactive: > 76.9 µM
CCCc1nnc(NC(=O)CCC(=O)N2CCCCCC2)s1 | inactive: > 76.9 µM
CCCCN(C(=O)NC(=O)Nc1ccccc1OCC)S(C)(=O)=O | inactive: > 76.9 µM
COc1cc(C(C)=O)ccc1OCC(=O)c1cc(C)n(C2CC2)c1C | inactive: > 76.9 µM
CCc1ccc(NC(=O)c2cc(C(C)C)on2)cc1 | inactive: > 76.9 µM
CCCNC(=O)NC(C(=O)OC)C12CC3CC(CC(C3)C1)C2 (configuration not stated) | inactive: > 76.9 µM
CCc1c(C)sc(NC(=O)CC#N)c1C#N | inactive: > 76.9 µM
COc1ccc(-c2nc(NC(=O)CSc3nnc(C)s3)ns2)cc1 | inactive: > 76.9 µM
O=C(Cn1ncc2ccccc21)N1CCN(c2cccc(C(F)(F)F)c2)CC1 | inactive: > 76.9 µM
CCN(CC)CCNc1nc2c(c(=O)[nH]c(=O)n2C)n1CC(O)COc1ccc(Cl)cc1Cl (configuration not stated) | inactive: > 76.9 µM
Cc1ccc(C)c(NC(=O)CNS(=O)(=O)c2ccccc2)c1 | inactive: > 76.9 µM
CCc1ccc2[nH]c(=O)c(CN(CCCN3CCOCC3)C(=O)Nc3ccccc3)cc2c1 | inactive
CCOC(=O)C1CCCN(CCC(=O)Nc2c(C(=O)OC)[nH]c3cc(OC)ccc23)C1 (configuration not stated) | inactive: > 76.9 µM
O=C1C2C3C=CC(C3)C2C(=O)N1Cc1ccccc1 (configuration not stated) | inactive: > 76.9 µM
Cc1nn(C)cc1CNC(=O)C1C2CCC(O2)C1C(=O)O (configuration not stated) | inactive: > 76.9 µM
Cc1nn(C)c(C)c1NC(=O)CSc1nc(-c2ccccc2F)nc2c1cnn2-c1ccccc1 | inactive: > 76.9 µM

SMILES | Potency
CN(c1nc(-c2ccccc2)cs1)C1CCS(=O)(=O)C1 (configuration not stated) | inactive: > 76.9 µM
CCC(=O)n1nc(NCc2ccc(OC)c(OC)c2)nc1NCc1ccc(OC)c(OC)c1 | inactive: > 76.9 µM
CCOc1ccccc1C(=O)Nc1ccccc1O | inactive: > 76.9 µM
CC1CCCCC1NS(=O)(=O)c1ccc(-n2cnnn2)cc1 (configuration not stated) | inactive: > 76.9 µM
COc1ccccc1CNC(=O)c1cc2sccc2n1C | inactive: > 76.9 µM
Cn1c(=O)c2c(nc(CN3CCN(c4ccccc4)CC3)n2Cc2c(F)cccc2Cl)n(C)c1=O | inactive: > 76.9 µM
CCOCCCNC(=O)c1ccc(OC(C)=O)cc1 | inactive: > 76.9 µM
c1ccc(Cc2nnc3sc(Nc4ccccc4)nn23)cc1 | inactive: > 76.9 µM
CCCCc1c(O)nc(SCC(=O)N2CCOCC2)n(-c2ccccc2C)c1=O | inactive: > 76.9 µM
CCCOC(=O)C1[C@H]2C(=O)N(CCCOC)C[C@]23C=C[C@H]1O3 (some centres not stated) | inactive: > 76.9 µM
O=C(O)CCC(=O)Nc1ccc(N2CCCCC2)c(C(=O)O)c1 | inactive: > 76.9 µM
NC(=O)C1CCN(C(=O)CSc2ccccn2)CC1 | inactive: > 76.9 µM
Cc1c(-c2ccccc2)oc2nc3c(c(=O)n(C)c(=O)n3C)n12 | inactive: > 76.9 µM
Cc1ccccc1-c1nc(CN2CCC(C(=O)NCc3ccco3)CC2)c(C)o1 | inactive: > 76.9 µM
CCc1ccc(S(=O)(=O)c2n[nH]n3c2nc(=O)c2ccccc23)cc1 | inactive: > 76.9 µM
Cc1c2cccn2cc[n+]1C | inactive: > 76.9 µM
CCOc1ccc(CN2CCN(S(=O)(=O)c3ccc(NC(C)=O)cc3)CC2)cc1OC | inactive: > 76.9 µM
C=CCOc1ccc(C2C(C(=O)c3ccco3)=C(O)C(=O)N2CCCN(CC)CC)cc1 (configuration not stated) | inactive: > 76.9 µM
CCOC(=O)N1CCN(CC(=O)Nc2c(C(=O)OC)[nH]c3ccccc23)CC1 | inactive: > 76.9 µM
O=C(Cn1c(-c2cncs2)nc2ccccc21)NC1CCCC1 | inactive: > 76.9 µM
CCOC(=O)C(NC(=O)c1ccccc1)(N1CCOCC1)C(F)(F)F (configuration not stated) | inactive: > 76.9 µM
CCn1c(=S)sc2nc(C)sc21 | inactive: > 76.9 µM
CC1CN(C(=O)c2ccc(COCC(F)(F)F)o2)CC(C)O1 (configuration not stated) | inactive: > 76.9 µM
